Measured values published in the supplement of paper PMC4784398.
Single values are uncertain, as repeats are few or missing.

Tests used:
Assay in all cases: relative growth (AUC) vs no-drug reference well (fraction change); higher = more growth
EV = test system: EV
Protocol: (§1)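 S. cerevisiae BY4741 carrying a CRISPRi gRNA plasmid or empty vector, with or without ATc, grown in 100 µl CSM-Ura in 96-well plates at 30 °C. OD600 was read about every 15 min; baseline-corrected AUC gave relative growth = (AUC - AUC reference well)/AUC reference, the reference being the no-drug well. Single wells over a dilution series of the drug.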

P9-CRG1+ATC = test system: P9-CRG1+ATC
Protocol: as §1

EV+ATC = test system: EV+ATC
Protocol: as §1

P9-CRG1 = test system: P9-CRG1
Protocol: as §1

EV + ATC = test system: EV + ATC
Protocol: as §1

ERG11 + ATC = test system: ERG11 + ATC
Protocol: as §1

ERG11 = test system: ERG11
Protocol: as §1

C[C@@]12C(=O)OC(=O)[C@]1(C)[C@H]1CC[C@@H]2O1 [Cantharidin]
relative growth
Conditions | EV | EV+ATC | P9-CRG1 | P9-CRG1+ATC
0.5 µM | 0.0198 | 0.01 | 0.0167 | -0.0174
0.624 µM | 0.027 | 0.0214 | 0.0315 | -0.0218
0.8 µM | 0.0216 | 0.0158 | 0.0398 | -0.0241
0.96 µM | 0.0397 | 0.0227 | 0.0264 | -0.0545
1.2 µM | 0.0274 | 0.0194 | 0.0154 | -0.103
1.52 µM | 0.0411 | 0.0266 | 0.0004 | -0.13
1.92 µM | 0.0372 | 0.0275 | -0.0655 | -0.276
2.4 µM | 0.0335 | 0.0367 | -0.0233 | -0.367
3.2 µM | 0.0187 | 0.015 | -0.0277 | -0.396
4.32 µM | 0.0226 | 0.0239 | -0.0396 | -0.533
5.76 µM | -0.0207 | 0.0029 | -0.0929 | -0.632
7.76 µM | -0.0589 | -0.0458 | -0.206 | -0.774
10.4 µM | -0.0921 | -0.0742 | -0.275 | -0.836
13.92 µM | -0.156 | -0.132 | -0.422 | -0.906
18.64 µM | -0.213 | -0.187 | -0.494 | -0.928
24.96 µM | -0.324 | -0.293 | -0.583 | -0.932
33.44 µM | -0.426 | -0.382 | -0.777 | -0.931
44.88 µM | -0.584 | -0.527 | -0.825 | -0.955
60.16 µM | -0.707 | -0.696 | -0.919 | -0.977
76.72 µM | -0.808 | -0.777 | -0.972 | -0.993
97.92 µM | -0.877 | -0.849 | -0.988 | -0.997
125.04 µM | -0.956 | -0.937 | -0.998 | -0.998

OC(Cn1cncn1)(Cn1cncn1)c1ccc(F)cc1F [Fluconazole]
relative growth
Conditions | ERG11 | ERG11 + ATC | EV | EV + ATC
1 µM | 0.0828 | 0.126 | 0.032 | 0.101
1.48 µM | 0.157 | 0.03 | 0.016 | 0.0851
2.24 µM | 0.0751 | 0.0786 | 0.0324 | 0.0853
3.36 µM | 0.0355 | 0.108 | 0.0593 | 0.0792
5.04 µM | 0.062 | 0.0974 | 0.058 | 0.0683
5.88 µM | 0.0726 | 0.0587 | 0.0683 | 0.0759
6.88 µM | -0.0293 | -0.1 | 0.0414 | 0.0656
8 µM | 0.0181 | -0.0209 | 0.0659 | 0.0613
9.36 µM | 0.103 | -0.199 | 0.0418 | 0.0218
10.92 µM | 0.0835 | -0.194 | 0.034 | 0.0189
12.72 µM | -0.0223 | -0.196 | -0.0217 | -0.0212
14.8 µM | -0.0683 | -0.398 | 0.118 | 0.119
17.28 µM | 0.075 | -0.443 | 0.101 | 0.107
20.16 µM | -0.0179 | -0.555 | 0.0602 | 0.0543
23.48 µM | -0.0145 | -0.748 | 0.0298 | 0.0372
27.4 µM | -0.0543 | -0.818 | -0.0296 | -0.0464
31.92 µM | -0.0166 | -0.857 | -0.111 | -0.102
37.24 µM | -0.108 | -0.889 | -0.238 | -0.218
43.4 µM | -0.236 | -0.912 | -0.348 | -0.32
50.6 µM | -0.473 | -0.919 | -0.522 | -0.489
71.12 µM | -0.873 | -0.945 | -0.712 | -0.574
100 µM | -0.916 | -0.938 | -0.743 | -0.721
